Publication PMC10668032
The list shows a part of the results. At the low end of the ranking the order means little.

Each sequence was assayed against SIX1 homeodomain (reference allele) (UniProt Q15475) (assay: universal protein binding microarray). Conditions: Universal all-10-mer PBM (8x60K, AMADID 030236), 300 nM GST-tagged protein, Alexa Fluor 488 anti-GST; buffer, salt, pH and temperature not stated; high values mean tight binding; most listed sequences are background and not binding sites; double strand, one strand shown.

With ACTCCTTG as the sequence, how does the binding signal read?
The binding signal was -0.0322 E-score.

How did the binding signal turn out when GGGCCCAA was run?
Its binding signal is -0.162 E-score.

CGCAGGAA was tested. Which binding signal did it give?
Its binding signal is -0.035 E-score.

With GTTTGTCA as the sequence, how does the binding signal read?
Its binding signal is -0.132 E-score.

Which binding signal does the source give for AATGGCTG here?
Its binding signal is -0.0545 E-score.

For AAACGCGA, which binding signal is on record?
The binding signal was -0.247 E-score.

With CGTGCGTC as the sequence, how does the binding signal read?
The binding signal was 0.014 E-score.

With CCTAGCCG as the sequence, how does the binding signal read?
The binding signal was -0.109 E-score.

Which binding signal does the source give for GAAAGTGA here?
Its binding signal is -0.0181 E-score.

How did the binding signal turn out when GACAGGTA was run?
Its binding signal is 0.0735 E-score.

With AATGTTGA as the sequence, how does the binding signal read?
Its binding signal is 0.0497 E-score.

Which binding signal does the source give for AACCCAGT here?
The binding signal was -0.0779 E-score.

With CACTACGC as the sequence, how does the binding signal read?
The binding signal was -0.226 E-score.

How did the binding signal turn out when CGCTCTAG was run?
The binding signal was -0.237 E-score.

For ATATGGGG, which binding signal is on record?
The binding signal was 0.4 E-score.

With AATGCTTA as the sequence, how does the binding signal read?
The binding signal was -0.13 E-score.

How did the binding signal turn out when ACCACTTA was run?
Its binding signal is -0.103 E-score.

How did the binding signal turn out when GGCCCACA was run?
The binding signal was -0.316 E-score.

CTTTATTC was tested. Which binding signal did it give?
The binding signal was -0.191 E-score.

Which binding signal does the source give for CGTCCTTC here?
Its binding signal is -0.0777 E-score.

For CAGCCAAG, which binding signal is on record?
The binding signal was -0.0893 E-score.

Which binding signal does the source give for GATGTCGA here?
Its binding signal is 0.0781 E-score.

For AGACGCGC, which binding signal is on record?
The binding signal was -0.115 E-score.

AGCTCCAC was tested. Which binding signal did it give?
The binding signal was -0.118 E-score.

How did the binding signal turn out when GCTTAAAC was run?
The binding signal was -0.339 E-score.

CCTACTAA was tested. Which binding signal did it give?
Its binding signal is 0.031 E-score.

How did the binding signal turn out when AACCCTGG was run?
Its binding signal is 0.0352 E-score.

For CACCAAGA, which binding signal is on record?
Its binding signal is 0.074 E-score.

How did the binding signal turn out when GCGCAATA was run?
The binding signal was 0.135 E-score.

For CACCCCCG, which binding signal is on record?
Its binding signal is 0.172 E-score.

CCAACGGC was tested. Which binding signal did it give?
The binding signal was -0.322 E-score.

Which binding signal does the source give for ATACACTC here?
The binding signal was 0.225 E-score.

AAACTCCG was tested. Which binding signal did it give?
Its binding signal is -0.181 E-score.

For ACCAGTAA, which binding signal is on record?
Its binding signal is 0.0362 E-score.

How did the binding signal turn out when CAACCGGC was run?
The binding signal was -0.0315 E-score.

Which binding signal does the source give for AGCTTCTC here?
Its binding signal is 0.0127 E-score.

Which binding signal does the source give for CCTGGGTA here?
Its binding signal is 0.0317 E-score.

Which binding signal does the source give for GGTCACCA here?
Its binding signal is -0.205 E-score.

GGCACCCC was tested. Which binding signal did it give?
Its binding signal is -0.108 E-score.

With ATACCTGC as the sequence, how does the binding signal read?
The binding signal was 0.342 E-score.

For TGTCTCAA, which binding signal is on record?
The binding signal was 0.0904 E-score.

With AGCACTTC as the sequence, how does the binding signal read?
The binding signal was -0.312 E-score.

How did the binding signal turn out when CTGCGGGA was run?
Its binding signal is -0.14 E-score.

How did the binding signal turn out when AAAGCACT was run?
Its binding signal is 0.0753 E-score.

AAAAATCC was tested. Which binding signal did it give?
Its binding signal is 0.0961 E-score.

With CATGCGAC as the sequence, how does the binding signal read?
Its binding signal is 0.0166 E-score.

How did the binding signal turn out when CCCCCTCC was run?
Its binding signal is -0.098 E-score.

With CATCCTGG as the sequence, how does the binding signal read?
Its binding signal is 0.0578 E-score.

With AAGAATGT as the sequence, how does the binding signal read?
The binding signal was -0.151 E-score.

How did the binding signal turn out when AGAGGGCT was run?
Its binding signal is -0.0641 E-score.

How did the binding signal turn out when TGAGCACA was run?
Its binding signal is -0.19 E-score.

Which binding signal does the source give for GGAGGTTA here?
Its binding signal is -0.0541 E-score.

How did the binding signal turn out when ATGTCGTG was run?
The binding signal was -0.0388 E-score.

AGGCCCCA was tested. Which binding signal did it give?
The binding signal was -0.242 E-score.

GCTGATGA was tested. Which binding signal did it give?
The binding signal was 0.0845 E-score.

With CCGGTATA as the sequence, how does the binding signal read?
Its binding signal is 0.343 E-score.

How did the binding signal turn out when CGCATCGC was run?
The binding signal was 0.0135 E-score.

ACACGCCA was tested. Which binding signal did it give?
The binding signal was 0.0232 E-score.

CCGAGCGG was tested. Which binding signal did it give?
The binding signal was 0.0797 E-score.

For ACAAGATG, which binding signal is on record?
Its binding signal is 0.0934 E-score.

Which binding signal does the source give for AAGAAAGT here?
The binding signal was -0.29 E-score.

With CAAAGGGA as the sequence, how does the binding signal read?
The binding signal was 0.0166 E-score.

AAGCGGCG was tested. Which binding signal did it give?
The binding signal was -0.245 E-score.

Which binding signal does the source give for GGAAACCA here?
The binding signal was -0.106 E-score.

For TAACGCGA, which binding signal is on record?
The binding signal was -0.094 E-score.

ATGCAATG was tested. Which binding signal did it give?
Its binding signal is -0.0906 E-score.

Which binding signal does the source give for TGAGGTAA here?
Its binding signal is -0.129 E-score.

How did the binding signal turn out when GAGGGCCA was run?
Its binding signal is -0.283 E-score.

ATCAGACA was tested. Which binding signal did it give?
Its binding signal is 0.152 E-score.

With CTCAATTA as the sequence, how does the binding signal read?
Its binding signal is -0.0399 E-score.

Which binding signal does the source give for CATGAGGG here?
The binding signal was -0.105 E-score.

Which binding signal does the source give for GCAAAACA here?
The binding signal was -0.134 E-score.

Which binding signal does the source give for ACGTTGTC here?
Its binding signal is -0.221 E-score.

For CTGAAAAA, which binding signal is on record?
Its binding signal is -0.27 E-score.

Which binding signal does the source give for CAGCATCC here?
The binding signal was -0.0888 E-score.

With CTACCCAG as the sequence, how does the binding signal read?
The binding signal was 0.0526 E-score.

For AGAAAAGA, which binding signal is on record?
The binding signal was -0.221 E-score.

For AACAACAC, which binding signal is on record?
Its binding signal is 0.103 E-score.

How did the binding signal turn out when CCAATCCA was run?
Its binding signal is 0.0928 E-score.

How did the binding signal turn out when CCTTAGCG was run?
Its binding signal is -0.125 E-score.

With ACATGCAA as the sequence, how does the binding signal read?
Its binding signal is -0.154 E-score.

With CGATTTAA as the sequence, how does the binding signal read?
Its binding signal is -0.173 E-score.

For CTTGGAAA, which binding signal is on record?
Its binding signal is -0.141 E-score.

With CCCCGATC as the sequence, how does the binding signal read?
Its binding signal is 0.346 E-score.

AGAATTAC was tested. Which binding signal did it give?
The binding signal was -0.0355 E-score.

With CGCGGTTA as the sequence, how does the binding signal read?
The binding signal was 0.0518 E-score.

ACGCCCCA was tested. Which binding signal did it give?
The binding signal was 0.0741 E-score.

With ATCAGACG as the sequence, how does the binding signal read?
Its binding signal is 0.15 E-score.

For CTAAGCCC, which binding signal is on record?
Its binding signal is -0.151 E-score.

Which binding signal does the source give for AGGACAGC here?
The binding signal was -0.225 E-score.

Which binding signal does the source give for AAATCGAA here?
Its binding signal is -0.226 E-score.

Which binding signal does the source give for AGGTTGCC here?
Its binding signal is -0.124 E-score.

How did the binding signal turn out when AACCACGT was run?
Its binding signal is -0.134 E-score.

CTGGCTTC was tested. Which binding signal did it give?
The binding signal was -0.122 E-score.

How did the binding signal turn out when ACAAGGCA was run?
Its binding signal is -0.204 E-score.

How did the binding signal turn out when CATGCATC was run?
Its binding signal is 0.0608 E-score.

How did the binding signal turn out when ACCCTTAC was run?
The binding signal was -0.0667 E-score.

GCAGCAAA was tested. Which binding signal did it give?
The binding signal was -0.317 E-score.

How did the binding signal turn out when CAAATGCG was run?
The binding signal was -0.0736 E-score.

With GTTGCATA as the sequence, how does the binding signal read?
Its binding signal is 0.0748 E-score.

For AGGTCCTG, which binding signal is on record?
The binding signal was -0.137 E-score.

ACCCATAA was tested. Which binding signal did it give?
Its binding signal is 0.0983 E-score.

GCCGGTCA was tested. Which binding signal did it give?
The binding signal was -0.165 E-score.

How did the binding signal turn out when CCGCGTCG was run?
The binding signal was -0.13 E-score.

For AACCCCGA, which binding signal is on record?
The binding signal was 0.218 E-score.

Which binding signal does the source give for ATACGAAA here?
The binding signal was 0.226 E-score.

AGGAGACC was tested. Which binding signal did it give?
Its binding signal is -0.0106 E-score.

How did the binding signal turn out when CACCATCG was run?
The binding signal was -0.106 E-score.

How did the binding signal turn out when GCAATCTA was run?
The binding signal was 0.0593 E-score.
